According to patent US20100075953A1, “SUBSTITUTED PIPERAZINES, (1,4) DIAZEPINES, AND 2,5-DIAZABICYCLO (2.2.1) HEPTANES AS HISTAMINE H1 AND/OR H3 ANTAGONISTS OR HISTAMINE H3 REVERSE ANTAGONISTS” (Glaxo Group Limited, priority 2002, published 2010):
Some entries share one result that the patent states for a list of compounds.

Legend:
[1] = target: T1, human H1 receptor (Homo sapiens, UniProt P35367); assay: Histamine H1 functional antagonist assay; assay type: cell-based; details: CHO cells expressing human H1, suppression of histamine induced increase in fluorescence (FLIPR)
T1 construct: expressed in transfected cells

[2] = target: histamine H3 receptor (Homo sapiens, UniProt Q9Y5N1); assay: Histamine H3 functional antagonist assay; details: membranes of CHO K1 cells expressing human H3; [35S]GTPgammaS SPA; histamine 0.3 μM
Sequence of histamine H3 receptor (Q9Y5N1 whole entry): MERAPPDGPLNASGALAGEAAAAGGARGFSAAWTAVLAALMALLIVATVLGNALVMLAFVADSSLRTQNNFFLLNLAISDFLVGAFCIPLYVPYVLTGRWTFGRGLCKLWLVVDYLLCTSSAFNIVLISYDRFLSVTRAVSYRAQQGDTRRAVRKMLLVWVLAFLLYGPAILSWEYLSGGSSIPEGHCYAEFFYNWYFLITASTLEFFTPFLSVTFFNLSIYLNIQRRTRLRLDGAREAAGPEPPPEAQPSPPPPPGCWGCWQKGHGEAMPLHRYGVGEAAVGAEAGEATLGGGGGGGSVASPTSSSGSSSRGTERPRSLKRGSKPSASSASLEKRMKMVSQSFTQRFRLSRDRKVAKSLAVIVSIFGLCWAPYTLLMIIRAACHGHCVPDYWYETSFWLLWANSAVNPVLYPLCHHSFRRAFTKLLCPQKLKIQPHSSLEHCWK

T1 sequence (P35367 whole entry): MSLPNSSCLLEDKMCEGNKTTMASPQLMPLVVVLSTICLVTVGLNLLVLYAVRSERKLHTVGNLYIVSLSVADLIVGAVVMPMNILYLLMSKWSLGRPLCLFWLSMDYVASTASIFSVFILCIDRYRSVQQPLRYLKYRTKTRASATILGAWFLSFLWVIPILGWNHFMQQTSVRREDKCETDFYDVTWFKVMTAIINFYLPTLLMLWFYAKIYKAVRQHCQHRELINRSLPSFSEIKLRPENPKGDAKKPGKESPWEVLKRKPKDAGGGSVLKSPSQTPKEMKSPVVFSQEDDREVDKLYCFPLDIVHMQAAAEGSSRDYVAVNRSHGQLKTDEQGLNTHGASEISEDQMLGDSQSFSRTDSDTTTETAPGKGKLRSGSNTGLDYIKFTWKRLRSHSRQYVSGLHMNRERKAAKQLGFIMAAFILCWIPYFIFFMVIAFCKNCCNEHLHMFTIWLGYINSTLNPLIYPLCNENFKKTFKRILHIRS

SMILES	antagonism in the histamine H1 functional antagonist assay (pKb) [1] [pKb]	antagonism in the histamine H3 functional antagonist assay (pKb) [2] [pKb]	other results
CCCc1ccc(C)c(C(=O)N2CCN(c3ccc(OCCCN4CCCCC4C)cc3)CC2)c1 (stereo not drawn) [Example E156]	> 6.5	> 6.5	
Cc1cccc(C(=O)N2CCN(c3ccc(OCCCN4CCCC(C)(C)C4)cc3)CC2)c1C.O=C(O)C(F)(F)F [Example E209]	> 7.3	> 6.5	antagonism in the histamine H1 functional antagonist assay (pKb) ([1]; listed as Example E209): > 6.5 pKb
CCc1cc(CC)cc(C(=O)N2CCN(c3ccc(OCCCN4CCCCC4)cc3)CC2)c1 [Example E93]	> 7.3	> 6.5	antagonism in the histamine H1 functional antagonist assay (pKb) ([1]; listed as Example E93): > 6.5 pKb
CC1(C)CCCN(CCCOc2ccc(N3CCN(C(=O)c4ccc(F)cc4C(F)(F)F)CC3)cc2)C1.O=C(O)C(F)(F)F [Example E214]	> 7.3	> 6.5	antagonism in the histamine H1 functional antagonist assay (pKb) ([1]; listed as Example E214): > 6.5 pKb
O=C(c1cccc(Cl)c1)N1CCN(c2ccc(OCCCN3CCCCC3)cc2)CC1 [Example E85]	> 6.5	> 6.5	
O=C(c1cc2ccccc2n1Cc1ccccc1)N1CCN(c2ccc(OCCCN3CCCCC3)cc2)CC1 [Example E61]	> 6.5	> 6.5	
O=C(c1cc(Cl)ccc1Cl)N1CCN(c2ccc(OCCCN3CCCCC3)cc2)CC1 [Example E115]	> 7.3	> 6.5	antagonism in the histamine H1 functional antagonist assay (pKb) ([1]; listed as Example E115): > 6.5 pKb
CC1(C)CCCN(CCCOc2ccc(CCN3CCN(C(=O)c4cccc5ccccc45)CC3)cc2)C1.O=CO [Example E472]	> 7.3	> 6.5	antagonism in the histamine H1 functional antagonist assay (pKb) ([1]; listed as Example E472): > 6.5 pKb
Cc1ccc(C(=O)N2CCN(c3ccc(OCCCN4CCCCC4)cc3)CC2)cc1F [Example E107]	> 6.5	> 6.5	
CN(CCCOc1ccc(N2CCN(C(=O)c3cccc(C(F)(F)F)c3)CC2)cc1)C1CCCC1 [Example E183]	> 6.5	> 6.5	
CCCc1ccc(C)c(C(=O)N2CCN(c3ccc(OCCCN4CCCC(C)(C)C4)cc3)CC2)c1.O=C(O)C(F)(F)F [Example E224]	> 7.3	> 6.5	antagonism in the histamine H1 functional antagonist assay (pKb) ([1]; listed as Example E224): > 6.5 pKb
Cn1cc(C(=O)N2CCN(c3ccc(OCCCN4CCCCC4)cc3)CC2)c2c(Br)cccc21.O=CO [Example E57]	> 6.5	> 6.5	
O=C(c1cc(F)ccc1F)N1CCN(c2ccc(OCCCN3CCCCC3)cc2)CC1 [Example E86]	> 6.5	> 6.5	
O=C(c1cccc2ccccc12)N1CCN(c2ccc(OCCCN3CCCCC3)c(Cl)c2)CC1.O=CO [Example E225, 1-[3-Chloro-4-(3-piperidin-1-ylpropoxy)phenyl]-4-(1-naphthoyl)piperazine formate]	> 6.5	> 6.5	
C=Cc1cccc(C(=O)N2CCN(c3ccc(OCCCN(C)C4CCCC4)cc3)CC2)c1 [Example E179]	> 6.5	> 6.5	
